Assay results: the supplement of paper PMC4604168 (melanoma cell lines)
The other results are listed elsewhere or left out. Repeats are few or missing, and single values can be far off.

Test system: 501Mel
Assay: cell count relative to DMSO control; melanoma cells; higher = more viable cells
Conditions: library dose: standard library concentration; 72 h
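Note: cells treated in 1,536-well plates, then fixed and DAPI-stained, with nuclei counted from automated high-throughput microscope images.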

Row | Structure (SMILES) | cell count
1 | CCc1ccc(CCOc2ccc(CC3SC(=O)NC3=O)cc2)nc1 (stereo unspecified) [pioglitazone] + COc1cc(N2CCC(N3CCN(C)CC3)CC2)ccc1Nc1ncc(Cl)c(Nc2ccccc2S(=O)(=O)C(C)C)n1 [NVP-TAE684] (first compound 10 µM, partner dose 0.4 µM) | 97.7%
2 | NC(=O)c1ccc(N(C(N)=O)c2c(F)cccc2F)nc1-c1ccc(F)cc1F + CCN(CC)CCCCNc1ncc2cc(-c3cc(OC)cc(OC)c3)c(NC(=O)NC(C)(C)C)nc2n1 [PD173074] (first compound 2 µM, partner dose 0.5 µM) | 111%
3 | CN(NC(=O)CC(=O)NN(C)C(=S)c1ccccc1)C(=S)c1ccccc1 + CCc1ccc(CCOc2ccc(CC3SC(=O)NC3=O)cc2)nc1 [pioglitazone] (first compound 0.03 µM, partner dose 10 µM) | 17.8%
4 | CC(C)(C)c1cnc(CSc2cnc(NC(=O)C3CCNCC3)s2)o1 + COc1cc(N2CCC(N3CCN(C)CC3)CC2)ccc1Nc1ncc(Cl)c(Nc2ccccc2S(=O)(=O)C(C)C)n1 [NVP-TAE684] (first compound 0.05 µM, partner dose 0.4 µM) | 67.5%
5 | Cc1ccc(NC(=O)c2cccc(N(C)C)c2)cc1NC(=O)c1ccc(O)cc1 + CCN(CC)CCCCNc1ncc2cc(-c3cc(OC)cc(OC)c3)c(NC(=O)NC(C)(C)C)nc2n1 [PD173074] (first compound 10 µM, partner dose 0.5 µM) | 67.9%
6 | CN(NC(=O)CC(=O)NN(C)C(=S)c1ccccc1)C(=S)c1ccccc1 + COc1ccc(COc2ccc(Cc3cnc(N)nc3N)cc2OC)cc1 [GW2580] (first compound 0.03 µM, partner dose 5 µM) | 26.1%
7 | Cc1ccc(NC(=O)c2cccc(N(C)C)c2)cc1NC(=O)c1ccc(O)cc1 + O=S(=O)(c1ccccc1)N(CC(F)(F)F)c1ccc(C(O)(C(F)(F)F)C(F)(F)F)cc1 [T0901317] (first compound 10 µM, partner dose 7 µM) | 60.5%
8 | NC(=O)c1ccc(N(C(N)=O)c2c(F)cccc2F)nc1-c1ccc(F)cc1F + COc1ccc(-c2ccc3c(N4CCOCC4)nc(N4C[C@@H](C)O[C@@H](C)C4)nc3n2)cc1CO [KU0063794] (first compound 2 µM, partner dose 0.1 µM) | 109%
9 | CCCCCCCCc1ccc(CCC(N)(CO)CO)cc1 [fingolimod] + CCN(CC)CCCCNc1ncc2cc(-c3cc(OC)cc(OC)c3)c(NC(=O)NC(C)(C)C)nc2n1 [PD173074] (first compound 10 µM, partner dose 0.5 µM) | 1.43%
10 | Cc1ccc(NC(=O)c2cccc(N(C)C)c2)cc1NC(=O)c1ccc(O)cc1 + CCCCCCCCCCCC1=C(O)C(=O)C=C(O)C1=O [Embelin] (first compound 10 µM, partner dose 6 µM) | 68.2%
11 | CCCCCCCCc1ccc(CCC(N)(CO)CO)cc1 [fingolimod] + O=C(O)C(=O)Nc1sc2c(c1C(=O)O)CCNC2 [TCS401] (first compound 10 µM, partner dose 8.33333 µM) | 2.57%
12 | CN(NC(=O)CC(=O)NN(C)C(=S)c1ccccc1)C(=S)c1ccccc1 + CC(C)CCN1c2nc(Nc3cc(F)c(O)c(F)c3)ncc2N(C)C(=O)C1C [BID1870] (first compound 0.03 µM, partner dose 1 µM) | 8.29%
13 | CCc1ccc(CCOc2ccc(CC3SC(=O)NC3=O)cc2)nc1 (stereo unspecified) [pioglitazone] + CC(C)CCN1c2nc(Nc3cc(F)c(O)c(F)c3)ncc2N(C)C(=O)C1C [BID1870] (first compound 10 µM, partner dose 1 µM) | 72.9%
14 | NC(=O)c1ccc(N(C(N)=O)c2c(F)cccc2F)nc1-c1ccc(F)cc1F + COC(=O)c1sccc1S(=O)(=O)Nc1ccc(Nc2ccccc2)cc1OC [GSK0660] (first compound 2 µM, partner dose 5 µM) | 88.7%
15 | CCCCCCCCc1ccc(CCC(N)(CO)CO)cc1 [fingolimod] + COC(=O)c1sccc1S(=O)(=O)Nc1ccc(Nc2ccccc2)cc1OC [GSK0660] (first compound 10 µM, partner dose 5 µM) | 1.23%
16 | CC(C)(C)c1cnc(CSc2cnc(NC(=O)C3CCNCC3)s2)o1 + O=C1NC(=O)/C(=C/c2ccc(-c3ccc(F)cc3O)o2)S1 [AS252424] (first compound 0.05 µM, partner dose 5 µM) | 107%
